Results: PMC4336329 (PLoS ONE, 2015)
In all, about 310,000 compounds went through this assay and about 14,000 (4.5%) showed an effect of 50% or more. Effects have a minus sign here. Some of the results follow.

The compounds below were run against human ether-à-go-go-related gene (hERG) potassium channel (human, UniProt Q12809) (assay: primary screen, population patch clamp on CHO cells stably expressing hERG).
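Further: peak tail current of the secondary pulse compared with the same well before compound.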

human ether-à-go-go-related gene (hERG) potassium channel, sequence (Q12809 whole entry, looked up): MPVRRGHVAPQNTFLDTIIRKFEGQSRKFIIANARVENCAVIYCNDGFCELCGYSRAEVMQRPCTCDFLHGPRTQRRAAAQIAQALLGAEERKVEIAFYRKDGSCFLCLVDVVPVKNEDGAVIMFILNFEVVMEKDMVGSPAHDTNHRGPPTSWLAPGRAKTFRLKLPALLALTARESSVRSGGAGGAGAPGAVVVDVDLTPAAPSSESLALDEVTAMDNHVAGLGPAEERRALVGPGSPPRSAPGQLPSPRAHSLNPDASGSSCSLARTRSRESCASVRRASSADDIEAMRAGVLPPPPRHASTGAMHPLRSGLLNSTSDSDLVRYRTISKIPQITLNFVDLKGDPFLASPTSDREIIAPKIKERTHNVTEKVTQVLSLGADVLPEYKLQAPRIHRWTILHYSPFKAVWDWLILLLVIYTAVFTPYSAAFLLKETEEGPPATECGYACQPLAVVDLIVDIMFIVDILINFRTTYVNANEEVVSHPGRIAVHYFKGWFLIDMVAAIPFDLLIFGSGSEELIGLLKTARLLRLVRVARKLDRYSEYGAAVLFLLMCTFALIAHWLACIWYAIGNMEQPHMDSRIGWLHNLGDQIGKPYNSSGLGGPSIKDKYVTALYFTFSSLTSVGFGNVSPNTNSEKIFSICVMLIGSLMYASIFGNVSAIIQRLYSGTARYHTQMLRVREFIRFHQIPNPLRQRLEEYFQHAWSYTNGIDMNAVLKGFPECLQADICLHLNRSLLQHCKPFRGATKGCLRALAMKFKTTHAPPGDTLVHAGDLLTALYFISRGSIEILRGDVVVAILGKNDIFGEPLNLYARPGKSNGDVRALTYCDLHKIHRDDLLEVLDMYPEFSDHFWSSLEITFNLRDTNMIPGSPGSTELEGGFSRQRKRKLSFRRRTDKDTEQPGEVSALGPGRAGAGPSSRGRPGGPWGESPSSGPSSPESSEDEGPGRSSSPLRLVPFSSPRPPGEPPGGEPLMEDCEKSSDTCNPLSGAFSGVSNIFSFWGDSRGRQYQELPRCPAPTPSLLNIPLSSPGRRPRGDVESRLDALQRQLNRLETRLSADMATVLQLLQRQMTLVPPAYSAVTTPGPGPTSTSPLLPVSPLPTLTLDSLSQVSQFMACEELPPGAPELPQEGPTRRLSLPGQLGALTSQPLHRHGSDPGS

Compound	hERG current change (%, negative = inhibition) at 10uM [%]
CC(Sc1nnc2ccccn12)C(N)=O (stereo not drawn)	2.79
CC1CCC(=C(C#N)C(=O)Nc2cccc(Cl)c2)CC1 (stereo not drawn)	-2.6
Cn1c(=O)c(C(=O)COc2ccc(C#N)cc2)c(N)n(Cc2ccccc2)c1=O	-13.4
CCCC(=O)Nc1c(-c2ccccc2Cl)c(=O)c2ccccc2n1C	35.3
CCOC(=O)c1oc2ccc(S(=O)(=O)n3nc(-c4ccc(Cl)cc4)cc3N)cc2c1C	3.58
CC1(C)NC(=O)N(CCCCOc2ccccc2[N+](=O)[O-])C1=O	3.42
CC(NC(=O)c1cccnc1)C(c1cccs1)N1CCN(C)CC1 (stereo not drawn)	11.2
Cc1cc(C)cc(NC(=O)COC(=O)c2ccc(CN3CCCC3=O)cc2)c1	-16.1
CCn1c(SCC(=O)Nc2nccs2)nnc1-c1ccccn1	-0.703
COc1ccccc1C(=O)NNC(=O)C(=O)Nc1ccc(C)cc1	23.4
Cn1c(=O)c(=O)n(C)c2cc(S(=O)(=O)N3CCCC3C(=O)NCc3cccnc3)ccc21 (stereo not drawn)	21.4
CCOC(=O)C1CCN(S(=O)(=O)c2ccc(OCC)cc2)CC1	-25.4
CN(C(=O)CSc1nnc(Nc2ccccc2)s1)c1c(N)n(Cc2ccccc2)c(=O)[nH]c1=O	14.4
O=C(Nc1ccc(Cl)cc1)[C@@H]1[C@@H]2C(=O)N(c3cccc(F)c3)C(=O)[C@@H]2[C@H]2C=CC=NN21	-9.36
COc1ccc(C2C(=O)c3ccccc3C2=O)c(OC)c1	7.12
CCOc1ccccc1C1C(C(=O)OC)=CN(C)C=C1C(=O)OC	4.08
O=S(=O)(Cc1ccccc1)N1CCN(c2ccccc2)CC1	12
CN1C(C(=O)NCc2ccccc2)CC2Cn3c(nc4cc(Cl)c(Cl)cc43)C21 (stereo not drawn)	-65.6
COc1ccc(N(CC(=O)NC(C)c2ccccc2)S(=O)(=O)c2ccc(C)cc2)cc1 (stereo not drawn)	-22.1
O=C(Nc1ccccc1C(=O)N1CCCCCC1)c1ccccc1	-2.15
COCCNCC#CCOc1ccc(OC)cc1	-0.335
COc1ccc(NC(=O)COC(=O)/C=C/C(=O)OCC(=O)Nc2ccc(OC)c(Cl)c2)cc1Cl	26.1

Compound	hERG current change (%, negative = inhibition) at 10uM [%]
O=C(NC(Cc1ccccc1)C(=O)O)/C(=C/c1ccc([N+](=O)[O-])cc1)NC(=O)c1ccc(Br)o1 (stereo not drawn)	11.5
COc1cc(/C=N/Nc2ccc(Cl)c(C(=O)O)c2)ccc1OC(=O)c1ccc(F)cc1	-6.69
O=C(O)C1Cc2[nH]cnc2C(c2ccccc2O)N1 (stereo not drawn)	12.1
CCc1n[nH]c2c1/C(=N\O)CC(c1ccccc1)C2 (stereo not drawn)	-25.1
O=C(O)c1cnn2c1NC(c1cccs1)CC2C(F)(F)F (stereo not drawn)	3.61
C=CCOc1ccc(/C=C/C(=O)OCC(=O)NC(C)c2ccc(F)cc2)cc1 (stereo not drawn)	-0.664
Cn1c(=O)c(=O)n(C)c2cc(S(=O)(=O)CCC(=O)N3CCCCC3)ccc21	11.5
COc1ccc(NC2CCCN(C(=O)COc3ccc(Cl)cc3C)C2)cc1OC (stereo not drawn)	-11
Cc1ccc(NC(CC(=O)c2ccccc2)c2ccc(F)cc2)cc1 (stereo not drawn)	-3.39
COc1cccc(C(=O)c2sc(NC(C)C)nc2N)c1	-14.2
Cc1c(Cl)cnc(NC(=O)COC(=O)CCS(=O)(=O)c2ccccc2)c1Cl	-1.19
CC(C)=NOC(=O)c1c(C)noc1-c1snnc1C	13.4
CCOc1ccc(N2C(=O)C3C(c4ccccc4)=NN(c4ccccc4)C3C2=O)cc1 (stereo not drawn)	-2.93
CCCCc1ccc(NC(=O)Nc2cnccn2)cc1	-43.8
CCCOc1ccc(/C=N/NC(=O)C2CCCN2S(=O)(=O)c2ccc(Cl)cc2)cc1 (stereo not drawn)	-2.23
CC[C@H](C)Cc1cn([C@@H](CCCN=C(N)N)C(=O)NCCCCCCCCCCC(=O)N2CCNCC2)nn1	10.2
Cc1ccc(COc2coc(CO)cc2=O)cc1	-17.7
COc1ccccc1Nc1nc2c(s1)CCC2	-3.3
Cc1ccc(S(=O)(=O)NC(=O)N(C)C2CCCCC2)cc1	9.07
CCOC(=O)c1nc2ccccc2c(=O)n1-c1ccc(C)cc1C	-5.54
O=C(NCCc1c[nH]c2ccccc12)c1cnc2n(c1=O)CCS2	11.2
CCOC(=O)c1sc(NC(=O)/C=C/c2cnn(CC)c2C)c(C(=O)OCC)c1C	12.6

Compound	hERG current change (%, negative = inhibition) at 10uM [%]
O=C1CNC(=S)N1Cc1ccc(F)cc1	11.3
CCOC(=O)C1C(C)N=C2SCC(=O)N2C1c1cccc(Br)c1 (stereo not drawn)	-12.6
Cc1cc2c(=O)n(Cc3ccco3)c(SCC(=O)N3CCCc4ccccc43)nc2s1	-42.4
Cc1cc(C)cc(C(=O)OCC(=O)NC(=O)NC2CCCC2)c1	7.16
CCc1ccccc1NC(=O)c1nnn(CC(=O)Nc2cccc(C)c2C)c1N	2.68
COCCNC(=O)CNS(=O)(=O)c1ccc2nc(C)sc2c1	12.9
Cc1cc(OCC(=O)N2CCC(C(N)=O)CC2)c2c(C)c(C)c(=O)oc2c1	12.9
Cn1cnc2c1c(=O)n(Cc1cccc(Br)c1)c(=O)n2C	-27.8
Cc1ccc(S(=O)(=O)NCCC(=O)N2CCN(c3cccc(Cl)c3)CC2)cc1C	4.35
CC(=O)Nc1ccc(S(=O)(=O)N(C)CC(=O)NC2=NCCS2)cc1	0.0428
COc1cc(C(=S)N2CCCC2)ccc1OCc1ccccc1	8.85
CC(C)CC(C(=O)NCc1ccccn1)N1C(=O)c2ccccc2C1=O (stereo not drawn)	-1.75
CN(C)S(=O)(=O)Oc1cccc(C(=O)Nc2ccc([N+](=O)[O-])cc2)c1	7.22
COc1ccc(CCNC(=O)C/C(C)=N/NC(=O)c2cnccn2)cc1	10.7
Cc1ccc(CCNC(=O)C2CCCN2S(=O)(=O)c2ccc3c(c2)CCC(=O)N3)cc1 (stereo not drawn)	-27.7
O=C(COC(=O)CN1C(=O)COc2ccccc21)NC1CCCCC1	-0.159
CC(=O)Nc1ccc(S(=O)(=O)N(C)CC(=O)Nc2ccc(Br)cc2F)cc1	-33.4
CC(NC(=O)Nc1nnc(C(F)(F)F)s1)N1C(=O)C2C3C=CC(C3)C2C1=O (stereo not drawn)	-13.1
Cc1c(/C=C2\SC(=O)N(CC(=O)Nc3ccc4c(c3)OCO4)C2=O)c2ccccc2n1C	1.04
Cc1ccc(-n2c(SCC(=O)NCCN3C(=O)CSC3=O)nnc2-c2ccccc2F)cc1	-17.4
COc1cccc(O)c1CN1CCC(C(=O)Nc2ccc(Oc3cccnc3)cc2)CC1	-47.4
Cc1ccc(C(C(=O)NC2CCCCC2)N(C(=O)Cc2c[nH]c3ccccc23)c2ccccc2)o1 (stereo not drawn)	4.16

Compound	hERG current change (%, negative = inhibition) at 10uM [%]
CCOC(=O)N1CCC(NC(=O)C2CCCCN2S(=O)(=O)c2ccc(F)cc2)CC1 (stereo not drawn)	-4
OCC[C@@H]1C[C@@H](O)[C@H](O)[C@]2(Cc3ccccc3CO2)O1	26.2
CN(Cc1cnccn1)C(=O)CC1C(=O)NCCN1Cc1ccc(F)cc1Cl (stereo not drawn)	20
COc1ccc2[nH]c3nc(SCC(=O)NNC(=O)c4ccc(OC)c(OC)c4)nnc3c2c1	-0.146
O=c1cc(NCc2ccccc2)[nH]c(=O)[nH]1	15.1
O=c1oc2c(O)c(O)cc3c(=O)oc4c(O)c(O)cc1c4c23	9.44
CC(C)CC(=O)NC(Nc1ccc([N+](=O)[O-])cc1)C(Cl)(Cl)Cl (stereo not drawn)	-19.6
COC(=O)C1(S(=O)(=O)c2ccc(C)cc2)CCOCC1	-10
Cc1onc(-c2ccccc2Cl)c1C(=O)c1ccccc1	0.785
Oc1ccc(-c2n[nH]c(=S)n2Cc2ccco2)cc1	9.81
COc1ccc(CNC(=O)C2CCCN(S(=O)(=O)c3c(C)nn(C)c3C)C2)cc1 (stereo not drawn)	8.12
CCn1cnc2cc(NCc3ccc(N(C)C)cc3)ccc21	-8.28
O=C(CN1CCN(c2ccc(F)cc2)CC1)Nc1cc(C(F)(F)F)ccc1Cl	-2.67
CC(=O)N1CCc2cc(S(=O)(=O)N3CC(C)CC(C)C3)ccc21 (stereo not drawn)	5.39
CC(Sc1nc(N)cc(=O)[nH]1)C(=O)Nc1cccc(Cl)c1 (stereo not drawn)	20.6
O=C(Cc1cccs1)N1CCN(C(=O)C2CCCO2)CC1 (stereo not drawn)	1.22
COc1cc2c(c(OC)c1OC)-c1ccc(OC)c(=O)cc1C(NC(C)=O)CC2 (stereo not drawn)	-6.1
Cc1cc(Cl)ccc1OCC(=O)N1CC(C)CC(C)C1 (stereo not drawn)	-32.5
CCOC(=O)c1nn(-c2ccccc2)c2nc(Nc3ccccc3)cc(=O)n12	-0.0919
CC(=O)N/C(=C\c1ccccc1)C(=O)NCc1ccc2c(c1)OCO2	5.79
CCOC(CC(=O)NNC(=O)c1c(-c2ccccc2Cl)noc1C)OCC	17.7
